# Measurements from PubChem BioAssay AID493208 (National Center for Advancing Translational Sciences (NCATS), 2011).
# The whole screen tested about 44,000 compounds, of which about 340 (0.77%) were called active. Not shown: some 5% with an inconclusive outcome. The call rests on the fitted dose curve; in most records, active means well fitted inhibition curve with a large enough effect; inconclusive means small, poorly fitted or top-dose-only effect; inactive means flat fitted curve, though single readings scatter. The list shows a part of the results.
# Assay: Acumen qHTS Assay for Inhibitors of the mTORC1 Signaling Pathway in MEF (Tsc2-/-, p53-/-) Cells: Sytravon; further: nearly all actives have a fitted effect of over 50% in size;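 on activity change, negative = inhibition: plate controls were DMSO for no effect and rapamycin for full effect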
# Details: phospho-rpS6 immunofluorescence/PI, 24 h; series mostly up to 38.3 µM; activity change, negative = inhibition: at the top concentration
# Summary of the method: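 Tsc2-/-, p53-/- mouse embryonic fibroblasts (empty-vector line) exposed to compound 24 hrs at 37 C, fixed, immunostained for phospho-rpS6 and counterstained with propidium iodide. Acumen laser scanning gives % positive cells from Alexa 488/PI ratio, thresholded using 7.5 nM rapamycin; PI count gives viability.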
# Potency means the concentration at half of the fitted maximal effect.
Compound,"activity change, negative = inhibition",Potency
Cc1ccc(C(=O)c2oc3ccccc3c2NC(=O)COc2ccc(C(C)C)cc2)cc1,inactive: 1.98%,
O=C(Nc1ccc(S(=O)(=O)Nc2ncccn2)cc1)c1cc(=O)c2ccccc2o1,inactive: 2.97%,
CCOc1ccc(NC(=O)c2ccc3c(c2)CCN3S(=O)(=O)CC)cc1,inactive: -0.231%,
O=C(CC1C(=O)N(c2ccccc2)C(=O)N1Cc1ccc(F)cc1)Nc1cccc(F)c1 (stereo not given),inactive: -3.18%,
COc1ccc(-c2cc(-c3ccccc3)nc3c2COc2ccc(F)cc2-3)cc1,inactive: -2.62%,
CCN(CC)C(=O)Cn1c(=O)cc(C)c2c(C)nn(-c3ccc(C)cc3)c21,inactive: 1.96%,
CC(C)c1nn2c(=O)cc(COC(=O)c3ccc(NC(=O)C4CCCCC4)cc3)nc2s1,inactive: -19.6%,
Cc1ccc(CSc2ncc(Cl)c(C(=O)NCc3ccccc3)n2)cc1,inactive: -4.36%,
COc1ccc2[nH]c3c(c2c1)CCN(C(=O)c1cccc(Cl)c1)C3c1ccc(F)cc1 (stereo not given),inactive: 0.0579%,
Cc1ccc(S(=O)(=O)N2CCCc3cc(NS(=O)(=O)c4cc(C)ccc4C)ccc32)cc1,inactive: 13.9%,
Cc1nc2sccn2c(=O)c1S(=O)(=O)Nc1cc(Cl)ccc1O,inactive: -6.44%,
CCOC(=O)c1cc(-c2ccc(F)cc2)n(CC(=O)NC2CCCCCC2)c1C,inactive: 0.591%,
COc1ccc(NC(=O)c2c(NC(=O)COc3ccccc3)sc3c2CCC(C(C)(C)C)C3)cc1 (stereo not given),inactive: 4.37%,
Cc1ccc(CN(Cc2ccco2)C(=O)c2ccc(OCC(C)C)cc2)cc1,inactive: -7.6%,
Cc1ccc(C)c(N2CCN(C(=O)c3cc4c(=O)n(Cc5ccccc5)ccc4nc3C)CC2)c1,inactive: -9.68%,
Cc1ccc2c(c1)N(C(=O)N1CCC(C(=O)NCCc3ccc(Cl)cc3)CC1)CC(C)O2 (stereo not given),inactive: 6.27%,
Cc1ccc(-n2nc(C)c3c(C)c(CCC(=O)NCc4ccccc4Cl)c(C)nc32)cc1C,inactive: 0.515%,
CCOc1cccc2c1N[C@@H](c1ccc(C(=O)O)cc1)[C@H]1CC=C[C@@H]21,inactive: 0.222%,
Cc1cccc(NS(=O)(=O)c2ccc3[nH]c4c(c3c2)CCCCCC4)c1,,active: 13.1 µM
Cc1cccc(Cn2cccc2CNS(=O)(=O)c2ccccc2F)c1,inactive: -1.12%,
CCc1ccc(CNC(=O)Cn2nc(C)n3c(cc4cc(C)ccc43)c2=O)cc1,inactive: -1.27%,
CCc1ccc(NC(=O)CN2C(=O)C(c3ccc(C)cc3)=NC23CCCCC3)cc1,inactive: -1.71%,
COc1ccc(NC(=O)C(Cc2ccccc2)NS(=O)(=O)c2ccc3c(c2)CCC(=O)N3)c(OC)c1 (stereo not given),inactive: -4.42%,
CCCCOc1ccc(C2=NC(c3ccncc3)=Nc3ccc(OCC)cc3N2)cc1,inactive: -3.66%,

Compound,"activity change, negative = inhibition",Potency
CCOc1ccccc1CNC(=O)C1CCN(c2nnc(-n3c(C)ccc3C)s2)CC1,inactive: -7.53%,
O=C(Cn1c(=O)n(CC2CCC(C(=O)NCCc3ccccc3)CC2)c(=O)c2ccccc21)Nc1ccccc1 (stereo not given),inactive: -19.7%,
COc1ccc2sc(N(Cc3cccnc3)C(=O)C3CCCCC3)nc2c1,inactive: 0.0636%,
Cc1nn(-c2ccc(F)cc2)c(-n2cccc2)c1C(=O)NCCc1ccc(Cl)cc1,inactive: -8.29%,
Cc1cc(C)n2nc(CNS(=O)(=O)c3ccc(C)c(C)c3)nc2n1,inactive: -4.9%,
CC(C)OCCCn1c(SCC(=O)c2ccccc2)nc2c(sc3ccccc32)c1=O,inactive: -7.6%,
O=C(C1CCN(S(=O)(=O)c2cccc3nonc23)CC1)N1CCN(c2cccc(Cl)c2)CC1,inactive: -11.2%,
COc1ccc(NC(=O)CSc2nc3nc(C)c(Cc4ccccc4)c(C)n3n2)cc1OC,inactive: -0.642%,
Cc1ccc(Cn2c(=O)c3ccccc3n3c(-c4cccc(O)c4)nnc23)cc1,inactive: 4.17%,
CCN(CC)CCOC(=O)c1ccc(NC(=O)Cn2ncc3c2-c2cc(C)ccc2OC3)cc1,inactive: -2.17%,
COc1cccc(CNC(=O)c2ccc(-c3nc(COc4ccccc4)c(C)o3)cc2)c1,inactive: -3.94%,
Cc1ccc(CCNC(=O)c2cc3c(s2)-c2c(C)cccc2OC3)cc1,inactive: -7.09%,
Cc1ccc2nc(COc3ccccc3NC(=O)C(C)(C)C)cc(=O)n2c1,inactive: 6.73%,
CCOc1ccc(C2CC(c3c(O)n(C4CCCCC4)c(=O)[nH]c3=O)=Nc3ccccc3S2)cc1 (stereo not given),inactive: -2.26%,
O=C(Cc1ccc(F)cc1)NCc1ccc2c(c1)CCN2C(=O)c1ccc(F)cc1,inactive: -25.6%,
Cc1ccc(NS(=O)(=O)c2ccc(-n3cccn3)cc2)cc1Cl,inactive: -2.22%,
O=C(CSc1nnc2ccc3ccccc3n12)Nc1ccccc1Cl,inactive: -0.107%,
CCOC(=O)N1CCc2c(sc3c2c(=O)n(-c2ccccc2C(F)(F)F)c(=O)n3Cc2ccccc2C)C1,inactive: 1.89%,
COC(=O)c1cc2oc3ccccc3c2n1CC(=O)Nc1ccc(Cl)cc1F,inactive: 0.0588%,
COc1cccc2c1cc1c(=O)n(CC(=O)NCc3ccc(C)o3)nc(C)n12,inactive: -17.8%,
Cc1cccc(-c2nc(CCNC(=O)Cc3ccccc3)cs2)c1,inactive: -3.66%,
COc1ccc(CCNC(=O)c2ccc3c(c2)N(Cc2ccc(F)cc2)C(=O)CS3)cc1OC,inactive: -4.14%,
O=C(COc1ccc(Cl)cc1)Nc1ccc2nc(SCC(=O)N3CCCC3)sc2c1,inactive: -4.48%,
COc1ccc(OC)c(NC(=O)CSc2ccc(-c3sc(C)nc3C)nn2)c1,inactive: -7.5%,

Compound,"activity change, negative = inhibition",Potency
Cc1nn(C(=O)c2cccc(Cl)c2)c(C)c1S(=O)(=O)N1CCOCC1,inactive: 2.41%,
CCn1c(=O)cc(SCC(=O)NCc2ccc(OC)cc2OC)c2ccccc21,inactive: -1.23%,
CCC(=O)N1CCc2cc(S(=O)(=O)NC(CC(C)C)C(=O)NCCc3ccccc3)ccc21 (stereo not given),inactive: 1.17%,
COc1ccc(CCNC(=O)C(=O)NCC(c2ccco2)S(=O)(=O)c2cccs2)cc1OC (stereo not given),inactive: -2.09%,
O=C(c1nc(-c2ccc(Cl)cc2)n2c1CCCCC2)N1CCN(c2ccccc2)CC1,inactive: -7.62%,
O=C(COc1ccccc1-c1nc(-c2ccccc2)no1)Nc1cccc([N+](=O)[O-])c1,inactive: -14.4%,
CCOc1ccccc1NC(=O)Cn1c(=O)ccc2cc(S(=O)(=O)N3CCCC3)ccc21,inactive: -2.95%,
CC(=O)N1CCc2nc3sc(C(=O)Nc4ccc(Cl)cc4F)c(N)c3c(C(F)(F)F)c2C1,inactive: -4.47%,
CC(Oc1ccccc1)C(=O)Nc1nnc2n1CCS2 (stereo not given),inactive: -5.22%,
COc1cc(-c2nc3nc(C)cc(C)n3c2Nc2ccc(Cl)cc2)ccc1O,inactive: -18.3%,
COC(=O)c1cccc(-n2c(CCC(=O)O)ccc2-c2cccs2)c1,inactive: -1.28%,
COc1ccc(C(=O)Nc2ccc(-c3nnc4n3CCCCC4)cc2)cc1OC,inactive: 1.13%,
COc1ccc(Cn2c(C(=O)O)c(CNCc3ccc(C)o3)c3ccc(C)cc32)cc1,inactive: -14.6%,
O=C(c1cc2ccc3cccnc3c2[nH]1)N1CCN(c2ccccc2)CC1,inactive: 4.8%,
CC(C)c1nc2ccc(C(=O)NC(C)c3ccccc3)cc2o1 (stereo not given),inactive: -10.6%,
O=C(NC1CCCC1)c1ccc(CSc2nc3cccnc3n2Cc2ccc(F)cc2)cc1,inactive: -6.14%,
CCOC(=O)c1ccc2ncc3c(-c4ccccc4)nn(-c4ccc(F)c(Cl)c4)c3c2c1,inactive: -15.7%,
CCc1ccccc1N1CC(c2nc3ccccc3n2CCCCOc2ccccc2)CC1=O (stereo not given),inactive: -2.68%,
Oc1ccccc1-c1nc(/C=C/c2ccc(F)cc2)nn1-c1ccccc1,inactive: -2.47%,
CC(=O)c1ccc(N2CCN(S(=O)(=O)c3ccc4c(c3)C(C)(C)C(=O)N4)CC2)cc1,inactive: -9.52%,
CCOc1ccc(NC(=O)CSc2ncc3c(n2)-c2ccccc2N(Cc2ccccc2C)S3(=O)=O)cc1,inactive: 9.85%,
Cc1cc(C(=O)NCc2ccccc2Cl)c2c(C)nn(-c3ccccc3)c2n1,inactive: 3.59%,
COc1cc(NC(=O)CSc2ncccc2C(=O)OC(C)C)cc(OC)c1,inactive: 5.94%,
COc1ccc(CCNC(=O)CS(=O)Cc2nc(-c3ccccc3F)oc2C)cc1OC (stereo not given),inactive: -4.84%,

Compound,"activity change, negative = inhibition",Potency
COc1ccc(-c2nc(SCCOc3ccccc3Cl)n3[nH]c(=O)cc3n2)cc1,inactive: 6.83%,
COc1cccc(CNC(=O)C2CCN(c3nnc(-n4c(C)ccc4C)s3)CC2)c1OC,inactive: -7.34%,
CCOc1ccc(-c2nc(CSCC(=O)NCc3ccc(Cl)cc3)c(C)o2)cc1,inactive: -0.846%,
CCN(CC)CCNC(=O)c1ccc2c(=O)n3nc(Nc4ccccc4OC)sc3nc2c1,inactive: -0.408%,
CC(=O)c1cc2c(cc1N/C(=N/S(=O)(=O)c1ccc(C)cc1)c1ccc(F)cc1)OCO2,inactive: 1.95%,
CC(C)CCNC(=O)CN1C(=O)CSc2ccc(S(=O)(=O)N3CCCCC3)cc21,inactive: 5.96%,
Cc1c(C(=O)N2CCN(c3ccccc3)CC2)sc2nc3n(c(=O)c12)CCC3,inactive: -0.582%,
COc1ccc(CCNC(=O)c2ccc3c(c2)ncn3-c2ccc(C)cc2C)cc1OC,inactive: 0%,
CCc1ccc(S(=O)(=O)c2nnn3c2nc(NC(C)C)c2sccc23)cc1,inactive: -3.2%,
Cc1ccc(NC(=O)c2ccc(-n3c(C)nnc3C)cc2)cc1F,inactive: -0.0622%,
CCOC(=O)c1c(-c2ccc(C)cc2)csc1NC(=O)c1nc(SC(C)C)ncc1Cl,inactive: 0.999%,
CCc1ccccc1NC(=O)C1CCCN(C(=O)c2cnn(-c3ccccc3)c2-n2cccc2)C1 (stereo not given),inactive: -0.32%,
CCCc1nc(SCc2cc(=O)c3ccc(C)c(C)c3[nH]2)n[nH]1,inactive: 0%,
COc1ccc(S(=O)(=O)N2CCN(Cc3nc4ccc(C)cc4o3)CC2)cc1Cl,inactive: -4.01%,
CCC(C(=O)NCCc1ccccc1)n1nc(C)n2c(cc3sccc32)c1=O (stereo not given),inactive: 1.45%,
CCOc1ccc(N2CC(NC(=O)c3ccc(S(=O)(=O)N4CCCCC4)cc3)CC2=O)cc1 (stereo not given),inactive: -0.197%,
Cc1ccc(-c2cc(C(F)(F)F)n3nc(C(=O)NCC45CC6CC(CC(C6)C4)C5)cc3n2)cc1,inactive: -0.101%,
CCOc1ccccc1NC(=O)c1c(NC(=O)c2cccc(C)c2)sc2c1CCC2,inactive: 3.68%,
CCc1cc2c(cc3c(=O)n(CC(=O)NC4CCC(C)CC4)ncn32)s1 (stereo not given),inactive: -7.77%,
COc1cc2nc(NCc3ccc(C)cc3)n3nc(-c4ccccc4)nc3c2cc1OC,inactive: 2.16%,
COc1ccc(Nc2nc(N)c3cc(OC)c(OC)cc3n2)cc1,,active: 18.5 µM
CC1CCc2c(sc(NC(=O)C3c4ccccc4Oc4ccccc43)c2C(=O)OC(C)C)C1 (stereo not given),inactive: -3.34%,
CCOC(=O)c1scc(-c2ccccc2)c1S(=O)(=O)Nc1cc(Cl)c(OC)cc1OC,inactive: -12.3%,
